The supplement of paper PMC4604168 (melanoma cell lines)
The other results are listed elsewhere or left out. Most values come without repeats; read them as rough.

What was measured:
Test in all cases: cell count relative to DMSO control; melanoma cells; higher = more viable cells
Settings in all cases: library dose: low library concentration; 72 h
MZ2-MEL = tested on: MZ2-MEL
MeWo = tested on: MeWo
RPMI7951 = tested on: RPMI7951
RVH-421 = tested on: RVH-421
SkMel28 = tested on: SkMel28
SkMel30 = tested on: SkMel30
SkMel5 = tested on: SkMel5
UACC257 = tested on: UACC257
UACC62 = tested on: UACC62
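Note: cell number obtained by counting DAPI-stained nuclei in high-throughput microscope images with image analysis software, screen run in 1,536-well plates.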

Structure (SMILES)	cell count (MZ2-MEL) [%]	cell count (MeWo) [%]	cell count (RPMI7951) [%]	cell count (RVH-421) [%]	cell count (SkMel28) [%]	cell count (SkMel30) [%]	cell count (SkMel5) [%]	cell count (UACC257) [%]	cell count (UACC62) [%]
COCC[n+]1c2c(n(Cc3cnccn3)c1C)C(=O)c1ccccc1C2=O + O=C1NC(=O)/C(=C/c2ccc(-c3ccc(F)cc3O)o2)S1 [AS252424] (first compound 0.0004 µM, partner dose 1 µM)	77.1	96.9	98	116	93.6	81	79.8	88	104
O=C(CCCCCCC(=O)Nc1ccccc1)NO [vorinostat] + COc1cc(N2CCC(N3CCN(C)CC3)CC2)ccc1Nc1ncc(Cl)c(Nc2ccccc2S(=O)(=O)C(C)C)n1 [NVP-TAE684] (first compound 0.08 µM, partner dose 0.08 µM)	101	99.6	102	119	86	77.5	86.1	91	91.9
Nc1cccc2c1CN(C1CCC(=O)NC1=O)C2=O (stereo unspecified) [lenalidomide] + O=S(=O)(c1ccccc1)N(CC(F)(F)F)c1ccc(C(O)(C(F)(F)F)C(F)(F)F)cc1 [T0901317] (first compound 1 µM, partner dose 1.4 µM)	94.9	87.8	90	9.79	82.5	82	72.7	81.7	84.6
Cn1c(Nc2ccc(C(F)(F)F)cc2)nc2cc(Oc3ccnc(-c4ncc(C(F)(F)F)[nH]4)c3)ccc21 + CCN(CC)CCCCNc1ncc2cc(-c3cc(OC)cc(OC)c3)c(NC(=O)NC(C)(C)C)nc2n1 [PD173074] (first compound 0.08 µM, partner dose 0.1 µM)	78.3	66.2	69.3	71.9	52.6	60.2	64.3	50.8	50.5
C#Cc1cccc(Nc2ncnc3cc(OCCOC)c(OCCOC)cc23)c1 [erlotinib] + CC(C)CCN1c2nc(Nc3cc(F)c(O)c(F)c3)ncc2N(C)C(=O)C1C [BID1870] (first compound 0.8 µM, partner dose 0.2 µM)	96.2	90.9	103	124	92.7	88.4	96.1	87.5	69.6
Cn1c(Nc2ccc(C(F)(F)F)cc2)nc2cc(Oc3ccnc(-c4ncc(C(F)(F)F)[nH]4)c3)ccc21 + CC(C)CCN1c2nc(Nc3cc(F)c(O)c(F)c3)ncc2N(C)C(=O)C1C [BID1870] (first compound 0.08 µM, partner dose 0.2 µM)	79.3	67	58.2	61.2	43.4	55.5	70.4	51.8	42.3
COCC[n+]1c2c(n(Cc3cnccn3)c1C)C(=O)c1ccccc1C2=O + N#Cc1c(O)c2c(-c3ccc(-c4ccccc4O)cc3)csc2[nH]c1=O [A769662] (first compound 0.0004 µM, partner dose 2 µM)	68	100	99	95.5	101	95.9	81.2	115	88.9
C#Cc1cccc(Nc2ncnc3cc(OCCOC)c(OCCOC)cc23)c1 [erlotinib] + COc1ccc(COc2ccc(Cc3cnc(N)nc3N)cc2OC)cc1 [GW2580] (first compound 0.8 µM, partner dose 1 µM)	92.4	103	104	105	92.1	90.9	103	86	87.4
Cn1c(Nc2ccc(C(F)(F)F)cc2)nc2cc(Oc3ccnc(-c4ncc(C(F)(F)F)[nH]4)c3)ccc21 + COc1ccc(COc2ccc(Cc3cnc(N)nc3N)cc2OC)cc1 [GW2580] (first compound 0.08 µM, partner dose 1 µM)	86.2	69.6	75.2	76.5	65.9	65.3	83	50.2	57
C#Cc1cccc(Nc2ncnc3cc(OCCOC)c(OCCOC)cc23)c1 [erlotinib] + O=C1NC(=O)/C(=C/c2ccc(-c3ccc(F)cc3O)o2)S1 [AS252424] (first compound 0.8 µM, partner dose 1 µM)	93.4	77.9	109	101	84.7	96.7	107	82.7	86.6
C#Cc1cccc(Nc2ncnc3cc(OCCOC)c(OCCOC)cc23)c1 [erlotinib] + COc1cc2ncnc(Nc3ccc(Oc4ccccc4)cc3)c2cc1OC [SrcI1] (first compound 0.8 µM, partner dose 2 µM)	80.6	87.9	113	121	84.4	88.3	78.7	79.2	97.3
Nc1cccc2c1CN(C1CCC(=O)NC1=O)C2=O (stereo unspecified) [lenalidomide] + Cn1cc(/C=C2\C(=O)Nc3cccnc32)c2ccccc21 [GW441756] (first compound 1 µM, partner dose 0.4 µM)	101	93.7	85	89.9	88.1	91.2	78.3	78.2	89.6
Nc1cccc2c1CN(C1CCC(=O)NC1=O)C2=O (stereo unspecified) [lenalidomide] + COc1ccc2c(c1)CCC1C2CCC2(C)C(NCCCCCCN3C(=O)C=CC3=O)CCC12 [U73122] (first compound 1 µM, partner dose 0.4 µM)	102	112	83.4	113	86.9	83.6	89.2	84.6	92.7
Nc1cccc2c1CN(C1CCC(=O)NC1=O)C2=O (stereo unspecified) [lenalidomide] + c1cc(-c2cnn3cc(-c4ccc(OCCN5CCCCC5)cc4)cnc23)ccn1 [Dorsomorphin] (first compound 1 µM, partner dose 0.4 µM)	94.9	104	106	114	88.2	134	94.7	74	99.6
O=C(CCCCCCC(=O)Nc1ccccc1)NO [vorinostat] + Cc1cc([N+](=O)[O-])ccc1NS(=O)(=O)c1cc(Cl)ccc1Cl [FH535] (first compound 0.08 µM, partner dose 1 µM)	95.1	95.4	119	72.7	69.1	89.2	77.7	77.5	74
C#Cc1cccc(Nc2ncnc3cc(OCCOC)c(OCCOC)cc23)c1 [erlotinib] + COc1ccc(-c2ccc3c(N4CCOCC4)nc(N4C[C@@H](C)O[C@@H](C)C4)nc3n2)cc1CO [KU0063794] (first compound 0.8 µM, partner dose 0.02 µM)	97.5	80.1	96.9	79.4	79.5	67.5	95	68.5	82.9
Cn1c(Nc2ccc(C(F)(F)F)cc2)nc2cc(Oc3ccnc(-c4ncc(C(F)(F)F)[nH]4)c3)ccc21 + COc1ccc(-c2ccc3c(N4CCOCC4)nc(N4C[C@@H](C)O[C@@H](C)C4)nc3n2)cc1CO [KU0063794] (first compound 0.08 µM, partner dose 0.02 µM)	71.8	69.3	59.1	78.5	61.5	56.3	70.4	36.4	60.8
COCC[n+]1c2c(n(Cc3cnccn3)c1C)C(=O)c1ccccc1C2=O + CCN(CC)CCCCNc1ncc2cc(-c3cc(OC)cc(OC)c3)c(NC(=O)NC(C)(C)C)nc2n1 [PD173074] (first compound 0.0004 µM, partner dose 0.1 µM)	64	85.3	74.8	92.4	111	114	80.1	108	92.1
O=C(CCCCCCC(=O)Nc1ccccc1)NO [vorinostat] + O=S(=O)(c1ccccc1)N(CC(F)(F)F)c1ccc(C(O)(C(F)(F)F)C(F)(F)F)cc1 [T0901317] (first compound 0.08 µM, partner dose 1.4 µM)	98.7	85.2	111	94.5	80.6	100	72.7	94.7	92.7
O=C(CCCCCCC(=O)Nc1ccccc1)NO [vorinostat] + COc1ccc2c(c1)CCC1C2CCC2(C)C(NCCCCCCN3C(=O)C=CC3=O)CCC12 [U73122] (first compound 0.08 µM, partner dose 0.4 µM)	101	100	77.7	96.2	95	98.6	69.2	79.7	81.9
COCC[n+]1c2c(n(Cc3cnccn3)c1C)C(=O)c1ccccc1C2=O + COc1ccc(-c2ccc3c(N4CCOCC4)nc(N4C[C@@H](C)O[C@@H](C)C4)nc3n2)cc1CO [KU0063794] (first compound 0.0004 µM, partner dose 0.02 µM)	41.4	80.4	73.7	99.8	94.2	73.5	61	88.4	81.8
Cn1c(Nc2ccc(C(F)(F)F)cc2)nc2cc(Oc3ccnc(-c4ncc(C(F)(F)F)[nH]4)c3)ccc21 + O=C(Nc1ccccc1)c1cc([N+](=O)[O-])ccc1Cl [GW9662] (first compound 0.08 µM, partner dose 2 µM)	77.3	80.9	70	75.2	58.3	62	73.7	39.2	54.7
C#Cc1cccc(Nc2ncnc3cc(OCCOC)c(OCCOC)cc23)c1 [erlotinib] + Oc1cc(-c2nc(-c3ccccc3)[nH]c2-c2ccncc2)ccc1Cl [L779450] (first compound 0.8 µM, partner dose 0.2 µM)	73.7	97.8	98.3	84.7	86.2	94.7	103	88.1	86.9
O=C(CCCCCCC(=O)Nc1ccccc1)NO [vorinostat] + COc1cc2ncnc(Nc3ccc(Oc4ccccc4)cc3)c2cc1OC [SrcI1] (first compound 0.08 µM, partner dose 2 µM)	92.9	95.1	110	108	86.9	86.9	96.9	94.6	96.8
